Molecular target: T1, recombinant human BAFF (human, UniProt Q9Y275 partial chain)
T1 construct: domain: soluble fragments; Bought reagent; also called rhBAFF
Experiment: ELISA, rhBAFF coated on plate, detection with HRP anti-human Fc
Method: In vitro binding assay studies of the fusion proteins A and B were performed mainly using ELISA principle. A certain amount of rhBAFF was fixed onto microtiter plates. Each well was added a series of gradient concentration of the fusion proteins A or B to conduct binding reaction. Finally, the amount of the fusion protein binding to rhBAFF on the plate was detected by HRP-conjugated anti-human Fc to examine the bind of rhBAFF.
The soluble fragments of the recombinant human BAFF were diluted with PBS (pH7.4) to 0.5 g/ml and then added to microtiter plates (Greiner bio-one, Cat #655001). Each well was added 50 μl and incubated at 4° C. overnight. On the next day, the plate was washed with ultrapure water and then blocked with 5% non-fat dried milk/PBST. The samples to be detected were diluted with 3-fold gradient starting from 3 μg/ml and then added to microtiter plates. […] The absorbance at 490 nm was detected using a microplate reader (Bio-Rad, iMark) with 655 nm as the reference. The graph was made based on absorbance versus the logarithm of the molar concentration of the sample to be measured and EC₅₀ (the concentration corresponding to 50% of the absorption value change) was calculated by S-curve fitting using Origin software to represent the in vitro binding activity of the sample.

binding result: binds
B1: fusion protein A (Fc fusion)
chain: LPAQVAFTPYAPEPGSTCRLREYYDQTAQMCCSKCSPGQHAKVFCTKTSDTVCDAMRSCPEEQYWDPLLGTCMSCKTICNHQSQRTCAAFCRSLSCRKEQGKFYDHLLRDCISCASICGQHPKQCAYFCENKLRSPVNLPPELR[human IgG1 Fc with D221Y (EU numbers) omitted here]
notes: Expressed in CHO DG44 cells and purified; also called TACI-Fc fusion protein; TACI-Fc
